# Test results taken from the supplement of paper PMC10037445.
# The full ranking holds about 2,900 compounds; the median of “NF-kB SEAP reporter activity, fold change vs agonist alone” is about 0.99, and the highest 2% start at about 2.6. The list shows a part of the results.
# Tests used:
# RAW-Dual [1] = experiment: NF-kB SEAP reporter activity, fold change vs agonist alone; cytotoxicity flag (confluency mask): not cytotoxic; higher = enhanced NF-kB activity
# Summary of the method: (§1)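 Cytotoxic wells were those whose IncuCyte confluency was below 70% of agonist controls in both mask sets. The cells were RAW-Dual macrophages at 50,000 cells/well in DMEM on 384-well plates, dosed with 50 nL of library stock by pin tool, stimulated with a PRR agonist 1 h later, and kept at 37 °C, 5% CO2 for 20 hours. IRF and NF-κB reporter activity, as fold change over agonist-alone wells, came from supernatant read by QuantiLuc luminescence and QuantiBlue absorbance, respectively.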
# RAW-Dual [2] = experiment: NF-kB SEAP reporter activity, fold change vs agonist alone; higher = enhanced NF-kB activity; conditions: library stock concentration (final ~1000-fold dilution): 10 mM
# Summary of the method: as §1
# RAW-Dual [3] = experiment: NF-kB SEAP reporter activity, fold change vs agonist alone; cytotoxicity flag (confluency mask): cytotoxic (confluency <70% of control); higher = enhanced NF-kB activity
# Summary of the method: as §1
# [4] = agonist: ODN 1826 (TLR9) 0.5 ug/mL
# [5] = agonist: Pam2CSK4 (TLR2/6) 0.1 ug/mL
# [6] = agonist: Pam3CSK4 (TLR2/1) 0.1 ug/mL
# [7] = cytotoxicity flag (confluency mask): not cytotoxic, agonist: Imiquimod (TLR7) […]
# [8] = cytotoxicity flag (confluency mask): not cytotoxic, agonist: MPLA (TLR4) […]
compound,measurement,setting,value
CS(=O)(=O)CCNCc1ccc(-c2ccc3ncnc(Nc4ccc(OCc5cccc(F)c5)c(Cl)c4)c3c2)o1 (library stock concentration (final ~1000-fold dilution): 10 mM),NF-kB SEAP reporter activity,RAW-Dual [1]; agonist: LPS (TLR4) 0.1 ug/mL,2.56
same,NF-kB SEAP reporter activity,RAW-Dual [1]; [4],0.324
same,NF-kB SEAP reporter activity,RAW-Dual [1]; [5],0.657
same,NF-kB SEAP reporter activity,RAW-Dual [1]; [6],1.19
CS(=O)(=O)CCNCc1ccc(-c2ccc3ncnc(Nc4ccc(OCc5cccc(F)c5)c(Cl)c4)c3c2)o1,NF-kB SEAP reporter activity,RAW-Dual [2]; [7],2.12
same,NF-kB SEAP reporter activity,RAW-Dual [2]; [8],2
COC(=O)c1sccc1S(=O)(=O)Nc1ccc(Nc2ccccc2)cc1OC,NF-kB SEAP reporter activity,RAW-Dual [2]; [7],1.07
same,NF-kB SEAP reporter activity,RAW-Dual [2]; [8],1.11
COC(=O)c1sccc1S(=O)(=O)Nc1ccc(Nc2ccccc2)cc1OC (library stock concentration (final ~1000-fold dilution): 10 mM),NF-kB SEAP reporter activity,RAW-Dual [1]; agonist: LPS (TLR4) 0.1 ug/mL,1.72
same,NF-kB SEAP reporter activity,RAW-Dual [1]; [4],0.911
same,NF-kB SEAP reporter activity,RAW-Dual [1]; [5],0.821
same,NF-kB SEAP reporter activity,RAW-Dual [1]; [6],0.872
C=CC(=O)N1CCCC(n2nc(-c3ccc(Oc4ccccc4)cc3)c(C(N)=O)c2N)C1 (stereo not drawn),NF-kB SEAP reporter activity,RAW-Dual [2]; [7],0.67
same,NF-kB SEAP reporter activity,RAW-Dual [2]; [8],0.637
C=CC(=O)N1CCCC(n2nc(-c3ccc(Oc4ccccc4)cc3)c(C(N)=O)c2N)C1 (stereo not drawn) (library stock concentration (final ~1000-fold dilution): 10 mM),NF-kB SEAP reporter activity,RAW-Dual [1]; agonist: LPS (TLR4) 0.1 ug/mL,0.404
same,NF-kB SEAP reporter activity,RAW-Dual [1]; [4],0.546
same,NF-kB SEAP reporter activity,RAW-Dual [1]; [5],0.224
same,NF-kB SEAP reporter activity,RAW-Dual [1]; [6],0.272
CCC1(O)C(=O)OCc2c1cc1n(c2=O)Cc2cc3cc(O)ccc3nc2-1 (stereo not drawn),NF-kB SEAP reporter activity,"RAW-Dual [2]; cytotoxicity flag (confluency mask): cytotoxic (confluency <70% of control), agonist: Imiquimod (TLR7) […]",2.34
same,NF-kB SEAP reporter activity,"RAW-Dual [2]; cytotoxicity flag (confluency mask): cytotoxic (confluency <70% of control), agonist: MPLA (TLR4) […]",2
same,NF-kB SEAP reporter activity,RAW-Dual [2]; [7],0.896
same,NF-kB SEAP reporter activity,RAW-Dual [2]; [8],0.856
CCC1(O)C(=O)OCc2c1cc1n(c2=O)Cc2cc3cc(O)ccc3nc2-1 (stereo not drawn) (library stock concentration (final ~1000-fold dilution): 10 mM),NF-kB SEAP reporter activity,RAW-Dual [1]; agonist: LPS (TLR4) 0.1 ug/mL,1.08
same,NF-kB SEAP reporter activity,RAW-Dual [1]; [4],0.937
same,NF-kB SEAP reporter activity,RAW-Dual [1]; [5],1.07
same,NF-kB SEAP reporter activity,RAW-Dual [1]; [6],1.14
same,NF-kB SEAP reporter activity,RAW-Dual [3]; agonist: LPS (TLR4) 0.1 ug/mL,1.9
same,NF-kB SEAP reporter activity,RAW-Dual [3]; [4],2.17
same,NF-kB SEAP reporter activity,RAW-Dual [3]; [5],1.03
same,NF-kB SEAP reporter activity,RAW-Dual [3]; [6],1.5
O=C(/C=C/c1ccc(O)c(O)c1)O[C@@H]1C[C@](OC(=O)/C=C/c2ccc(O)c(O)c2)(C(=O)O)C[C@@H](O)[C@H]1O,NF-kB SEAP reporter activity,RAW-Dual [2]; [7],0.966
same,NF-kB SEAP reporter activity,RAW-Dual [2]; [8],1.12
O=C(/C=C/c1ccc(O)c(O)c1)O[C@@H]1C[C@](OC(=O)/C=C/c2ccc(O)c(O)c2)(C(=O)O)C[C@@H](O)[C@H]1O (library stock concentration (final ~1000-fold dilution): 10 mM),NF-kB SEAP reporter activity,RAW-Dual [1]; agonist: LPS (TLR4) 0.1 ug/mL,0.843
same,NF-kB SEAP reporter activity,RAW-Dual [1]; [4],0.852
same,NF-kB SEAP reporter activity,RAW-Dual [1]; [5],0.718
same,NF-kB SEAP reporter activity,RAW-Dual [1]; [6],1.06
CC1OC(OC2C(Oc3cc(O)c(C(=O)CCc4ccc(O)cc4)c(O)c3)OC(CO)C(O)C2O)C(O)C(O)C1O (stereo not drawn) (library stock concentration (final ~1000-fold dilution): 10 mM),NF-kB SEAP reporter activity,RAW-Dual [1]; agonist: LPS (TLR4) 0.1 ug/mL,0.867
same,NF-kB SEAP reporter activity,RAW-Dual [1]; [4],0.991
same,NF-kB SEAP reporter activity,RAW-Dual [1]; [5],0.784
same,NF-kB SEAP reporter activity,RAW-Dual [1]; [6],1.06
CC1OC(OC2C(Oc3cc(O)c(C(=O)CCc4ccc(O)cc4)c(O)c3)OC(CO)C(O)C2O)C(O)C(O)C1O (stereo not drawn),NF-kB SEAP reporter activity,RAW-Dual [2]; [7],0.957
same,NF-kB SEAP reporter activity,RAW-Dual [2]; [8],1.03
C[N+]1(C)CCC[C@H]1C(=O)[O-] (library stock concentration (final ~1000-fold dilution): 10 mM),NF-kB SEAP reporter activity,RAW-Dual [1]; agonist: LPS (TLR4) 0.1 ug/mL,1.31
same,NF-kB SEAP reporter activity,RAW-Dual [1]; [4],1.1
same,NF-kB SEAP reporter activity,RAW-Dual [1]; [5],1.17
same,NF-kB SEAP reporter activity,RAW-Dual [1]; [6],0.89
C[N+]1(C)CCC[C@H]1C(=O)[O-],NF-kB SEAP reporter activity,RAW-Dual [2]; [7],0.943
same,NF-kB SEAP reporter activity,RAW-Dual [2]; [8],1.04
